The text below walks through data of the supplement of paper PMC7826260.

What all share (experiment): uncleaved DNA left, log2 of reads against the no-enzyme library (log2 ratio); higher = less cleavage (more negative = more Rep cleavage of the k-mer); sequences stand for … in CTCGTCCG…ACCGGAGA
The subject of test [1] is T1, Rep nickase domain of Muscovy duck circovirus.
T1 sequence (Rep 1-111, printed without the tag): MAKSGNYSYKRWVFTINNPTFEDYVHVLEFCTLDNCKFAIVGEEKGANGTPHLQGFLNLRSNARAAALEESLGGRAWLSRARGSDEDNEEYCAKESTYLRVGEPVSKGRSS
The method, then: (§1)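 A pool of 90-nt single-stranded DNAs with seven random bases just before the constant AC of the nick site (name = the seven bases) was cut by 3 µM recombinant His6-SUMO-tagged Rep nickase domain (300 nM DNA, 50 mM HEPES pH 8.0, 50 mM NaCl, 1 mM MnCl2, 1 h, 37 °C, three replicates). Uncut DNA was amplified and sequenced.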

Test [2] deals with T2, Rep nickase domain of banana bunchy top virus.
T2 sequence (Rep 1-94, printed without the tag): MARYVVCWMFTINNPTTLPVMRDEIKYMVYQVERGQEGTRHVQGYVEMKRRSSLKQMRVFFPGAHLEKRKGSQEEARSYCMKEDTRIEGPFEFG
As for the experimental part: as §1
Test [3] deals with T3, Rep nickase domain of cabbage leaf curl virus.
T3 sequence (Rep 1-116, printed without the tag): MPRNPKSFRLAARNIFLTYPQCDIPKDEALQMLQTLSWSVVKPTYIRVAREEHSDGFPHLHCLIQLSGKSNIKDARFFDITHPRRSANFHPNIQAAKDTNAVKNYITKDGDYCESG
The method, then:
as §1

Test [4] relates to T4, Rep nickase domain of chickpea chlorotic dwarf virus.
T4 sequence (Rep 1-124, printed without the tag): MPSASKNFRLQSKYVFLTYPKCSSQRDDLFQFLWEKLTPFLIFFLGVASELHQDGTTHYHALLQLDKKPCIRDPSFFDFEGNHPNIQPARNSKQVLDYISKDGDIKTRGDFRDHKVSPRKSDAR
The method, then:
as §1

Test [5] relates to T5, Rep nickase domain of faba bean necrotic yellows virus.
T5 sequence (Rep 1-98, printed without the tag): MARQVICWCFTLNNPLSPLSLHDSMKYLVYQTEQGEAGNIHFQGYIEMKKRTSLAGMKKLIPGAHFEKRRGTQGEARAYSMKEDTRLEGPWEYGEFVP
As for the experimental part: as §1
In test [6] the test system is T6, Rep nickase domain of maize striate mosaic virus.
T6 sequence (Rep 1-117, printed without the tag): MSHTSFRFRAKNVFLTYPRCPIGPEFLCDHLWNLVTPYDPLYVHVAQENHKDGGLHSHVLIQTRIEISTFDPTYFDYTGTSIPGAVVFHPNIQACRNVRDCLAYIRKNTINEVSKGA
The method, then: as §1
Test [7] relates to T7, Rep nickase domain of porcine circovirus 2.
T7 sequence (Rep 2-116, printed without the tag): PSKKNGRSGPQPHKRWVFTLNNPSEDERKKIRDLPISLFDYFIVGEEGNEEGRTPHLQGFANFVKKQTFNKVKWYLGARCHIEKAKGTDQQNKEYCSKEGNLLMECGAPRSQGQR
The method, then:
as §1

The subject of test [8] is T8, Rep nickase domain of tomato golden mosaic virus.
T8 sequence (Rep 1-124, printed without the tag): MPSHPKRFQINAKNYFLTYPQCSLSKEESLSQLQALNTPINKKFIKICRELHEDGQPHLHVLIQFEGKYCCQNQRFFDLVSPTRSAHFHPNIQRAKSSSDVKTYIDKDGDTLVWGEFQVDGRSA
The method, then: as §1
For test [9], the system named is T9, Rep nickase domain of tomato yellow leaf curl virus.
T9 sequence (Rep 1-136, printed without the tag): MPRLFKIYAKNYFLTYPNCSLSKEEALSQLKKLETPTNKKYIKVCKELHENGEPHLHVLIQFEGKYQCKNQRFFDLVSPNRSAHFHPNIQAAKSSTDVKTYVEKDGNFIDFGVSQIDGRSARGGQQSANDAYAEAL
As for the experimental part: as §1
The test system of test [10] is T10, Rep nickase domain of wheat dwarf virus.
T10 sequence (Rep 1-137, printed without the tag): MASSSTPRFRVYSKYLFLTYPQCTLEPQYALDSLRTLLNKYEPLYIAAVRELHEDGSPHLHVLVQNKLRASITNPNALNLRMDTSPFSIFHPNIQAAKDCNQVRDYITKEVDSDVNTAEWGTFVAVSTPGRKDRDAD
As for the experimental part:
as §1

The other results are listed elsewhere or left out. The data describe in vitro nicking of single-stranded DNA by Rep domains (3 µM enzyme, 1 h, 37 °C); shown is the middle of each 90-letter strand. The score is log2 (uncut reads / reads without enzyme); the lower, the more was cut; hits are not called. The scaling is to total reads; values above 0 arise when much of the pool is cut.

Turning to AGGACGC, the “uncleaved DNA left (log2)” value in [1] amounted to 0.0205; in test [2] it was 0.0977; in test [3], 0.703; in test [4] it was 1.68; in [5] it was 0.0125; in test [6], 1.85. Besides, the “uncleaved DNA left (log2)” value in test [7] is 0.224; in test [8], 0.124; in [9] it was 0.0492; in [10], 0.101.

As for ACTCACT, the “uncleaved DNA left (log2)” value in [1] is -0.0162; in test [2], -0.00744; in [3], -0.29; in [4] it was -2.13; in test [5] it was -0.0491; in test [6], -0.849. The “uncleaved DNA left (log2)” value in [7] was -2.6; in test [8] it was 0.0586; in test [9], -0.164; in test [10], -0.0786.

For CCGGATT, the “uncleaved DNA left (log2)” value in test [1] was 0.0794; in test [2] it was 0.0756; in test [3], 0.409; in test [4] it was -0.0662; in test [5], 0.0646; in test [6], 1.16. Further, the “uncleaved DNA left (log2)” value in [7] is 0.0182; in [8], 0.0793; in test [9], 0.096; in test [10], -0.0102.

As for GTTATCA, the “uncleaved DNA left (log2)” value in [1] was -0.0477; in [2] it was 0.112; in test [3] it was 0.364; in test [4], 1.02; in [5], 0.00295; in test [6], 1.88. Further, the “uncleaved DNA left (log2)” value in [7] was determined as 0.043; in test [8], 0.131; in [9], 0.0974; in [10], 0.143.

For TGAGCCA, the “uncleaved DNA left (log2)” value in test [1] was -0.0633; in test [2], 0.138; in test [3], 0.18; in test [4], -0.129; in test [5] it was 0.081; in test [6], 0.127. Also, the “uncleaved DNA left (log2)” value was -0.312 in test [7], 0.0889 in test [8], 0.0932 in test [9] and 0.084 in test [10].

Consider CTCGGCT, for which the “uncleaved DNA left (log2)” value in test [1] was -0.107; in [2] it was -0.197; in test [3] it was -0.291; in test [4], -0.958; in test [5], -0.017; in test [6], -0.828. Further, the “uncleaved DNA left (log2)” value is -0.088 in test [7], -0.0891 in [8], -0.00858 in test [9] and -0.107 in [10].

CATATAT: the “uncleaved DNA left (log2)” value in test [1] is 0.019; in test [2], -0.556; in [3], 0.0499; in test [4], -1.48; in test [5] it was 0.212; in test [6] it was -0.736. Further, the “uncleaved DNA left (log2)” value in [7] is -0.62; in test [8] it was 0.169; in test [9] it was 0.0674; in test [10] it was 0.00364.

In the case of CTCGCTT, the “uncleaved DNA left (log2)” value is 0.000588 in [1]; -0.0893 in [2]; 0.0104 in [3]; -1.71 in [4]; -0.172 in [5]; -0.518 in test [6]. Besides, the “uncleaved DNA left (log2)” value in test [7] was -1.02; in test [8] it was 0.0123; in test [9] it was -0.0104; in test [10], -0.129.

Take CCTAGGT: the “uncleaved DNA left (log2)” value in test [1] is 0.0105; in test [2], -0.0396; in test [3], 0.313; in test [4], 0.978; in [5], 0.0165; in test [6] it was 1.15. For the same sequence, the “uncleaved DNA left (log2)” value in [7] was 0.0192; in [8] it was 0.0974; in test [9], -0.125; in test [10], -0.118.

Regarding CGTTAGA, the “uncleaved DNA left (log2)” value in [1] is 0.0744; in test [2], -0.0203; in [3] it was -0.121; in [4], -0.176; in test [5], -0.0828; in test [6], -0.742. Besides, the “uncleaved DNA left (log2)” value in test [7] was 0.0399; in test [8], -0.0529; in [9], 0.0539; in test [10], -0.0505.

In the case of CAGGGGG, the “uncleaved DNA left (log2)” value in test [1] was 0.114; in test [2], 0.128; in [3], -0.205; in test [4], -0.0857; in [5], 0.0976; in test [6], -0.423. The “uncleaved DNA left (log2)” value in test [7] is 0.259; in test [8], 0.199; in [9] it was 0.065; in test [10] it was 0.0125.

Take TCCCTAC: the “uncleaved DNA left (log2)” value in test [1] was 0.0617; in [2] it was 0.0183; in test [3] it was 0.0676; in test [4], -1.79; in test [5], 0.0634; in test [6] it was -0.415. Also, the “uncleaved DNA left (log2)” value was -0.16 in [7], 0.0566 in test [8], -0.0321 in test [9] and 0.0321 in test [10].

With AAAGCAG, the “uncleaved DNA left (log2)” value in test [1] was -0.0413; in test [2], -0.107; in [3], -0.147; in [4], 0.0848; in test [5] it was -0.00943; in test [6] it was -0.449. Further, the “uncleaved DNA left (log2)” value in test [7] was 0.148; in [8], -0.0251; in [9], -0.131; in [10], -0.0624.

As to ATTTGCA, the “uncleaved DNA left (log2)” value in test [1] is 0.00151; in test [2], 0.0584; in test [3], -0.774; in [4] it was -0.604; in [5], 0.12; in [6], -1.09. Besides, the “uncleaved DNA left (log2)” value in [7] was 0.208; in [8] it was -0.0227; in test [9], 0.0957; in [10], 0.0141.

On to TCATGTA, for which the “uncleaved DNA left (log2)” value is -0.248 in test [1]; -0.0468 in test [2]; -0.168 in test [3]; -0.94 in test [4]; -0.0545 in test [5]; -0.983 in test [6]. Moreover, the “uncleaved DNA left (log2)” value in [7] is -0.415; in test [8], 0.0269; in test [9] it was 0.0267; in test [10], -0.118.
